According to the supplement of paper PMC8728848:
The list shows a part of the results.

What was measured:
Assay in all cases: glycan array binding signal (z-score within array); higher = stronger binding
Details in all cases: glycan notation: IUPAC condensed, linker removed; mutation: R343V
Gal3S(b1-4)GlcNAc6S = target: Gal3S(b1-4)GlcNAc6S
In short: (§1)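 Columns mapping to the same glycan were averaged after glycan names were converted to IUPAC-condensed notation. The data come from 3228 arrays in the Consortium for Functional Glycomics database, limited to those with an available protein sequence. Binding is reported as a within-array Z-score averaged across arrays of one protein sequence and across linkers.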

[1] = target: Gal3S(b1-4)[Fuc(a1-3)]Glc
In short: as §1

Gal3S4S(b1-4)GlcNAc = target: Gal3S4S(b1-4)GlcNAc
In short: as §1

Gal3S6S(b1-4)GlcNAc = target: Gal3S6S(b1-4)GlcNAc
In short: as §1

Gal3S6S(b1-4)GlcNAc6S = target: Gal3S6S(b1-4)GlcNAc6S
In short: as §1

Gal4S(b1-4)GlcNAc = target: Gal4S(b1-4)GlcNAc
In short: as §1

Gal4S6S(b1-4)GlcNAc = target: Gal4S6S(b1-4)GlcNAc
In short: as §1

Gal6S(b1-4)Glc = target: Gal6S(b1-4)Glc
In short: as §1

Gal6S(b1-4)Glc6S = target: Gal6S(b1-4)Glc6S
In short: as §1

Gal6S(b1-4)GlcNAc = target: Gal6S(b1-4)GlcNAc
In short: as §1

Gal6S(b1-4)GlcNAc6S = target: Gal6S(b1-4)GlcNAc6S
In short: as §1

GalNAc(a1-3)Gal = target: GalNAc(a1-3)Gal
In short: as §1

GalNAc(a1-3)GalNAc = target: GalNAc(a1-3)GalNAc
In short: as §1

GalNAc(b1-3)Gal = target: GalNAc(b1-3)Gal
In short: as §1

[2] = target: GalNAc(b1-3)Gal(a1-4)Gal(b1-4)GlcNAc
In short: as §1

GalNAc(b1-3)GalNAc = target: GalNAc(b1-3)GalNAc
In short: as §1

GalNAc(b1-4)GlcNAc = target: GalNAc(b1-4)GlcNAc
In short: as §1

Glc(a1-4)Glc = target: Glc(a1-4)Glc
In short: as §1

Glc(a1-6)Glc(a1-6)Glc = target: Glc(a1-6)Glc(a1-6)Glc
In short: as §1

Glc(b1-4)Glc = target: Glc(b1-4)Glc
In short: as §1

Glc(b1-6)Glc = target: Glc(b1-6)Glc
In short: as §1

GlcA(b1-3)Gal = target: GlcA(b1-3)Gal
In short: as §1

GlcA(b1-3)GlcNAc = target: GlcA(b1-3)GlcNAc
In short: as §1

GlcA(b1-6)Gal = target: GlcA(b1-6)Gal
In short: as §1

[3] = target: GlcNAc(a1-3)Gal(b1-4)GlcNAc
In short: as §1

[4] = target: GlcNAc(a1-6)Gal(b1-4)GlcNAc
In short: as §1

[5] = target: GlcNAc(b1-2)Gal(b1-3)GalNAc
In short: as §1

[6] = target: GlcNAc(b1-2)Man(a1-3)[GlcNAc(b1-2)Man(a1-6)]Man(b1-4)GlcNAc(b1-4)GlcNAc
In short: as §1

GlcNAc(b1-3)Gal = target: GlcNAc(b1-3)Gal
In short: as §1

[7] = target: GlcNAc(b1-3)Gal(b1-3)GalNAc
In short: as §1

GlcNAc(b1-3)Gal(b1-4)Glc = target: GlcNAc(b1-3)Gal(b1-4)Glc
In short: as §1

[8] = target: GlcNAc(b1-3)Gal(b1-4)GlcNAc
In short: as §1

[9] = target: GlcNAc(b1-3)Gal(b1-4)GlcNAc(b1-3)Gal(b1-4)GlcNAc
In short: as §1

GlcNAc(b1-3)GalNAc = target: GlcNAc(b1-3)GalNAc
In short: as §1

GlcNAc(b1-3)Man = target: GlcNAc(b1-3)Man
In short: as §1

[10] = target: GlcNAc(b1-3)[GlcNAc(b1-4)][GlcNAc(b1-6)]GlcNAc
In short: as §1

[11] = target: GlcNAc(b1-3)[GlcNAc(b1-6)]Gal(b1-4)GlcNAc
In short: as §1

B1: Surfactant Protein D (Human); Neck + Carbohydrate Recognition Domain (NCRD) (Homo sapiens) (protein)
chain: MLLFLLSALVLLTQPLGYLEAEMKTYSHRTMPSACTLVMCSSVESGLPGRDRDGREGPRGEKGDPGLPGAAGQAGMPGQAGPVGPKGDNGSVGEPGPKGDTGPSGPPGPPGVPGPAGREGALGKQGNIGPQGKPGPKGEAGPKGEVGAPGMQGSAGARGLAGPKGERGVPGERGVPGNTGAAGSAGAMGPQGSPGARGPPGLKGDKGIPGDKGAKGESGLPDVASLRQQVEALQGQVQHLQAAFSQYKKVELFPNGQSVGEKIFKTAQFVKPFTEAQLLCTQAGGQLASPRSAAENAALQQLVVAKNEAAFLSMTDSKTEGKFTYPTGESLVYSNWAPGEPNDDGGSEDCVEIFTNGKWNDVACGEKRLVVCEF
- glycan array binding signal (z-score) (Gal3S(b1-4)GlcNAc6S): -0.266
- glycan array binding signal (z-score) [1]: -0.385
- glycan array binding signal (z-score) (Gal3S4S(b1-4)GlcNAc): -0.325
- glycan array binding signal (z-score) (Gal3S6S(b1-4)GlcNAc): -0.329
- glycan array binding signal (z-score) (Gal3S6S(b1-4)GlcNAc6S): -0.189
- glycan array binding signal (z-score) (Gal4S(b1-4)GlcNAc): -0.246
- glycan array binding signal (z-score) (Gal4S6S(b1-4)GlcNAc): -0.307
- glycan array binding signal (z-score) (Gal6S(b1-4)Glc): -0.379
- glycan array binding signal (z-score) (Gal6S(b1-4)Glc6S): -0.394
- glycan array binding signal (z-score) (Gal6S(b1-4)GlcNAc): -0.272
- glycan array binding signal (z-score) (Gal6S(b1-4)GlcNAc6S): -0.371
- glycan array binding signal (z-score) (GalNAc(a1-3)Gal): -0.511
- glycan array binding signal (z-score) (GalNAc(a1-3)GalNAc): -0.455
- glycan array binding signal (z-score) (GalNAc(b1-3)Gal): -0.55
- glycan array binding signal (z-score) [2]: -0.526
- glycan array binding signal (z-score) (GalNAc(b1-3)GalNAc): 0.991
- glycan array binding signal (z-score) (GalNAc(b1-4)GlcNAc): -0.51
- glycan array binding signal (z-score) (Glc(a1-4)Glc): 0.852
- glycan array binding signal (z-score) (Glc(a1-6)Glc(a1-6)Glc): -0.515
- glycan array binding signal (z-score) (Glc(b1-4)Glc): -0.032
- glycan array binding signal (z-score) (Glc(b1-6)Glc): -0.022
- glycan array binding signal (z-score) (GlcA(b1-3)Gal): -0.453
- glycan array binding signal (z-score) (GlcA(b1-3)GlcNAc): -0.499
- glycan array binding signal (z-score) (GlcA(b1-6)Gal): -0.463
- glycan array binding signal (z-score) [3]: 2.55
- glycan array binding signal (z-score) [4]: -0.497
- glycan array binding signal (z-score) [5]: -0.453
- glycan array binding signal (z-score) [6]: 3.08
- glycan array binding signal (z-score) (GlcNAc(b1-3)Gal): -0.139
- glycan array binding signal (z-score) [7]: 1.72
- glycan array binding signal (z-score) (GlcNAc(b1-3)Gal(b1-4)Glc): 1.72
- glycan array binding signal (z-score) [8]: 1.61
- glycan array binding signal (z-score) [9]: 2.08
- glycan array binding signal (z-score) (GlcNAc(b1-3)GalNAc): -0.284
- glycan array binding signal (z-score) (GlcNAc(b1-3)Man): 0.518
- glycan array binding signal (z-score) [10]: 3.11
- glycan array binding signal (z-score) [11]: 2.86
